Results are given in words; binding and its absence hold for the method and conditions named. Binding seen in cells or lysates may run through a third protein. Some results given as binding are weak or reduced against the parent protein; the word gives no strength. Where a sequence is shown, tags or fusion partners need not be part of it.
Target: NS1 protein of influenza A/Puerto Rico/8/34 (PR8), expressed from the virus in infected cells (influenza A virus A/Puerto Rico/8/34 (PR8)) (UniProt P03496)
Test: co-IP

Sequences of proteins named here, by UniProt entry; tags and fusion partners are left off.
UniProt P03496: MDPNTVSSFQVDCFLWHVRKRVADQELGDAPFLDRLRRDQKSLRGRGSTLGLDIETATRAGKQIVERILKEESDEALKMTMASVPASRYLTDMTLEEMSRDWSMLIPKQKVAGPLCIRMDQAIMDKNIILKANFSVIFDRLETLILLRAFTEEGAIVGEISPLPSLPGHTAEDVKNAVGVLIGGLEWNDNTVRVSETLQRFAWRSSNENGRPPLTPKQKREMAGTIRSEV

B1: Myc/DDK-tagged mouse Riplet (enzyme, UniProt Q9CWS1 1-417)
chain: MAAVCSGNAVPVWLSEDDLSCIICQGLLDQPTTLPCGHSFCLRCLHDLWVSKRGAVDGCPWACPICRKGPLTKPKLHKNPLLQDLVDKYLQAAREVEAGSEPEPAPAPRSAPQVTVQKSTTNVIQELTDMVRQLVDDVKSLQTQRPNLGSGQDNAQGTPPTDSSSEGEHSLDSPKLVTFSISQKKIQEILHNLEEIQEKLQGSVPGRAPPRERVQEMTSSLCLLPDQRRPAPRKASHLSLWAISPTFDLRTLSYNLEVSNNSRRVTVSRGDLHTYHWSPQRFSISQVFCSQALSSGQKYWEVDTRNCSHWAIGVASWGMKRDGMLGRTMDSWCIEWRGPGQFSAWAKMKKTDLQSDLPEVVGVWLDLESGELAFYAVADHERLLYECEVSSSSPLHPAFWLYGLSPGNYLEIKQLNT
- binding: binds

Source: article PMC3510253 (PLoS Pathogens, 2012)
